Among all 310,000 compounds or so, about 18,000 (5.8%) were called active. This list was built around the results that the source calls inconclusive (neither active nor inactive); the mix of calls is not that of the screen. The call rests on the fitted dose curve; in most records, active means well fitted inhibition curve with a large enough effect; inconclusive means small, poorly fitted or top-dose-only effect, or another doubt; inactive means no such curve, though single readings can be large or run the other way. Potencies of inconclusive entries are left out as doubtful fits.
assay: Primary qHTS for delayed death inhibitors of the malarial parasite plastid, 48 hour incubation; details: P. falciparum luciferase growth in erythrocytes; series mostly up to 28.7 µM
Method in brief: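 Read-out is firefly luciferase luminescence from an integrated reporter in P. falciparum, so falling signal marks reduced parasite growth. Infected erythrocytes were at 2% hematocrit and 0.1% parasitemia (final) in Albumax-supplemented RPMI 1640.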
On the % scale 0 is the no-effect control and ±100 the full control effect; potency means the concentration at half of the fitted maximal effect; tags describe the fitted curve by direction and shape.

Row | SMILES | Potency | activity change, negative = inhibition
1 | COc1ccc(N2CCN(C(=O)[C@@H](NC(=O)c3cc(OC)cc(OC)c3)C(C)C)CC2)cc1 | inconclusive [inhibitor, partial curve, poor fit] | –
2 | O=C(NCc1ccccc1)C1=C[C@H](c2ccc(Br)cc2)C[C@H](OCc2ccc(CO)cc2)O1 | inconclusive [inhibitor, partial curve, poor fit] | –
3 | Cc1ccccc1NC(=O)COC(=O)c1ccc(CSc2ccc(Cl)cc2)cc1 | inactive | –
4 | CCC(c1nnnn1CCc1ccccc1)N(Cc1ccco1)Cc1cc2cccc(C)c2[nH]c1=O (stereo unspecified) | inconclusive [inhibitor, partial curve] | –
5 | COc1cc(N(C)C)c([N+](=O)[O-])cc1C(=O)NC(C)CNc1ccc([N+](=O)[O-])cc1Cl (stereo unspecified) | inconclusive [inhibitor, single point] | –
6 | CC(CCc1ccccc1)NC(C)C(O)c1ccc(O)cc1 (stereo unspecified) | inconclusive [inhibitor, single point] | –
7 | CC1=C/C(=C\C=C(C#N)C#N)N(C)c2ccccc21 | inactive | –
8 | C=CCOC(=O)C1=C(C)NC(SCC(=O)Nc2nccs2)=C(C#N)C1c1cccs1 (stereo unspecified) | active: 4.65 µM | –
9 | COc1ccccc1N(CCC#N)C(=O)COC(=O)CCC(=O)c1ccc(F)cc1 | inactive | –
10 | Cc1nc2ncccn2c1-c1csc(Nc2ccccc2)n1 | active: 3.29 µM | –
11 | CC(=O)N1CCN(C(=O)CCNS(=O)(=O)c2ccccc2)CC1 | inconclusive [inhibitor, single point] | –
12 | Cc1cc(NC(=O)CCC(=O)N(c2ccc(F)cc2)C2(C(=O)NC3CCCCC3)CCCC2)no1 | inconclusive [inhibitor, partial curve, poor fit] | –
13 | O=C(N/N=C/c1ccco1)c1ccn[nH]1 | inactive | –
14 | COc1ccccc1C(CNc1ccc(S(=O)(=O)N2CCCC2)cc1[N+](=O)[O-])N(C)C (stereo unspecified) | inactive | –
15 | O=C(CN1CC[n+]2c(-c3cccs3)csc21)c1ccc(-c2ccccc2)cc1 | active: 13.1 µM | –
16 | Cc1nc2cc(C(F)(F)F)ccc2n1CCNc1nc(-c2ccc(F)cc2)cs1 | inconclusive [inhibitor, single point] | –
17 | O=C(NCCN1CCOCC1)c1cccc(S(=O)(=O)N(Cc2ccccc2)c2ccccc2)c1 | inactive | –
18 | COc1cc(C(=O)NCCOc2cc(C)cc(C)c2)cc(OC)c1OC | inconclusive [inhibitor, single point] | –
19 | COc1ccc(NC(=S)NCCc2ccccc2)c(C)c1 | inconclusive [inhibitor, single point] | –
20 | COc1ccc(CC2(CO)CCN(Cc3cnc(-c4ccccc4C)nc3)CC2)cc1 | inconclusive [inhibitor, single point] | –
21 | COc1ccc(NC(=O)CNS(=O)(=O)c2cccc3nonc23)c(OC)c1 | inactive | –
22 | N#Cc1ccc(Oc2ccc(S(=O)(=O)N3CCOCC3)cn2)cc1 | inconclusive [inhibitor, single point] | –
23 | CCOC(=O)/C=C/C(=O)OCC(=O)NCc1ccccc1 | inactive | –
24 | Cc1cc(=O)[nH]c(N/N=C/c2ccc(Cl)c([N+](=O)[O-])c2)n1 | active: 2.33 µM | –

Row | SMILES | Potency | activity change, negative = inhibition
25 | O=[N+]([O-])c1cccc(S(=O)(=O)NCc2ccccn2)c1 | inconclusive [inhibitor, full curve, poor fit] | –
26 | CCSCCOC(=O)C1=C(C)NC2=C(C(=O)CCC2)C1c1coc2ccccc2c1=O (stereo unspecified) | inconclusive [inhibitor, partial curve] | –
27 | Cc1nnc2sc(SCC(=O)Nc3ccc(Br)cc3)nn2c1=O | inconclusive [inhibitor, single point] | –
28 | O=C(C[n+]1ccc(/C=C/c2ccccc2)cc1)c1ccc2c(c1)OCCO2 | inconclusive [inhibitor, partial curve] | –
29 | CNC(=S)N(CCO)Cc1cc2cc3c(cc2[nH]c1=O)OCCO3 | inconclusive [inhibitor, full curve, poor fit] | –
30 | CCc1ccc(OCC2c3cc(OC)c(OC)cc3CCN2C(=S)NCCOC)cc1 (stereo unspecified) | inconclusive [inhibitor, single point] | –
31 | CCn1cc(C(=O)O)c(=O)c2cnc(N3CCN(C(=S)Nc4ccccc4Cl)CC3)nc21 | active: 0.37 µM | –
32 | Cn1c(SC/C=C/c2ccccc2)nnc1-c1ccco1 | inconclusive [inhibitor, full curve, poor fit] | –
33 | CCC(=O)c1ccc(OCC(=O)OCC(=O)c2cc(C)n(CC3CCCO3)c2C)cc1 (stereo unspecified) | inactive | –
34 | Cc1ccc2c(c1)c1c3n2CCN[C@H]3CCC1 | inconclusive [inhibitor, single point] | –
35 | C=CCn1c(OCc2ccccc2)n[nH]c1=S | – | inactive: 0.0645% [at 0.00184 µM]
36 | Cc1cc(C)c(C(=O)N(C)CC2CCCN(CCc3ccccc3F)C2)o1 (stereo unspecified) | inconclusive [inhibitor, partial curve, poor fit] | –
37 | COc1ccc(NC(=O)c2[nH]c(C)c(C(C)=O)c2C)cc1S(=O)(=O)N1CCOCC1 | inactive | –
38 | CCOCN(C(=O)Cn1cnc2ccccc21)c1c(C)cccc1CC | inconclusive [inhibitor, single point] | –
39 | CC(=O)Nc1ccc(N(C(=O)Cc2c[nH]c3ccccc23)C(C(=O)NC2CCCCC2)c2ccco2)cc1 (stereo unspecified) | inconclusive [inhibitor, single point] | –
40 | Oc1ccccc1Nc1nc(NCC2CCCO2)c2ccccc2n1 (stereo unspecified) | active: 2.33 µM | –
41 | COc1cccc(N2CCN(CC(=O)N3CCN(S(=O)(=O)c4ccc(Cl)cc4)CC3)CC2)c1 | inconclusive [inhibitor, single point] | –
42 | Cc1ccc(NC(=O)CSc2n[nH]c(-c3ccncc3)n2)cc1C | active: 11.7 µM | –
43 | COc1ccc(NC(=O)CCCN2C(=O)C(c3ccccc3)Oc3cccnc32)cc1 (stereo unspecified) | inconclusive [inhibitor, single point] | –
44 | CCOC(=O)c1nc(Nc2ccc(N3CCC(C)CC3)cc2)c2ccccc2n1 | inconclusive [inhibitor, single point] | –
45 | COc1ccc(OC)c(-c2cc(C(=O)Nc3ccc(F)cc3F)no2)c1 | inactive | –
46 | COc1cc(NC(=S)N2CCN(CCO)CC2)cc(OC)c1 | inactive | –
47 | O=C(NCCS(=O)(=O)N1CCN(c2cccc(Cl)c2)CC1)C1CCCC1 | inconclusive [inhibitor, single point] | –
48 | O=C(Nc1c(Cl)cc(Cl)cc1C(=O)NCCN1CCOCC1)c1ccc(Cl)cc1Cl | inactive | –

Row | SMILES | Potency | activity change, negative = inhibition
49 | COCC(=O)Nc1ccccc1-c1ccccc1 | inactive | –
50 | Cc1cc(=O)[nH]c(SCC(=O)N2CCCC(C)C2)n1 (stereo unspecified) | inactive | –
51 | C/C(=N\NC(=S)NCCc1ccccc1)c1ccc(Cl)cc1 | inconclusive [inhibitor, single point] | –
52 | COc1ccc(/C=c2/sc3n(c2=O)C(c2ccccc2OC)C2=C(N=3)c3ccccc3CC2)cc1O (stereo unspecified) | active: 2.08 µM | –
53 | CCN(CC)S(=O)(=O)c1cccc(NC(=O)c2ccc(SC)cc2OC)c1 | inconclusive [inhibitor, partial curve, poor fit] | –
54 | COCCN(C(=O)C1CC(=O)N(Cc2ccc(C)cc2)C1)c1c(N)n(CC(C)C)c(=O)[nH]c1=O (stereo unspecified) | inconclusive [inhibitor, single point] | –
55 | c1nc2n(n1)C1=C(CCCC1)C1(CCCCC1)N2 | inconclusive [inhibitor, full curve, poor fit] | –
56 | Nc1ccc2ncccc2c1N | inconclusive [inhibitor, partial curve, poor fit] | –
57 | COc1ccc(NC(=O)C(=O)N2N=C(C(C)C)CC2(O)C(F)(F)F)cc1 (stereo unspecified) | inactive | –
58 | COCCNc1oc(Cc2cccc3ccccc23)nc1C#N | inconclusive [inhibitor, full curve, poor fit] | –
59 | C(=N\Nc1nc(N2CCCCC2)nc(N2CCCCC2)n1)/c1c[nH]c2ccccc12 | inconclusive [inhibitor, single point] | –
60 | CCOc1ccc(OCC)c(NC(=O)CCS(=O)(=O)c2ccc(C)cc2)c1 | inactive | –
61 | O=C(CN1CCN(C(=O)C2CCCO2)CC1)Nc1cc(Cl)ccc1Cl (stereo unspecified) | inconclusive [inhibitor, full curve] | –
62 | Cc1ccc(C(NC(=O)NCCCN2CCOCC2)=C(Cl)Cl)cc1F | inconclusive [inhibitor, single point] | –
63 | COc1ccc(CNc2ncc(-c3ccccc3)n2C)cc1 | inactive | –
64 | CCCNC(=O)c1onc(CSc2ccccc2)c1C(=O)NCCC | inconclusive [inhibitor, single point] | –
65 | CC(C)Oc1ccccc1OCCCCn1cnc2ccccc2c1=O | inconclusive [inhibitor, partial curve] | –
66 | O=C(NCCCN1CCOCC1)c1cc(-c2ccc(F)cc2)no1 | inactive | –
67 | CCOC(=O)c1c(C)[nH]c(C(=O)OCC(=O)Nc2cc(C)ccc2OC)c1C | inactive | –
68 | CCCC1(c2ccccc2)NC(=O)N(CC(=O)NCC2COc3ccccc3O2)C1=O (stereo unspecified) | inconclusive [inhibitor, single point] | –
69 | CCCNC(=O)N1[C@H]2CC[C@@H]1C(C(=O)OC)=C(c1ccc3ccccc3c1)C2 | inconclusive [inhibitor, partial curve, poor fit] | –
70 | COCC(=O)OCC(=O)Nc1cc(C)c(C)cc1[N+](=O)[O-] | inactive | –
71 | COCCCNC(=O)c1ccc2c(c1)nc(C)n2-c1cccc(C)c1 | inconclusive [inhibitor, single point] | –
